# PubChem BioAssay AID504845 (National Center for Advancing Translational Sciences (NCATS), 2011)
# Screen size: about 390,000 compounds; about 150 (0.038%) were called active. The shares of active, inactive and inconclusive entries below differ from those in the screen. Calls follow the shape of the dose curve; as a rule, active = well fitted inhibition curve with a large enough effect; inconclusive = small, poorly fitted or top-dose-only effect; inactive = no such curve, though single readings can be large or run the other way. Where the call is inconclusive, the potency comes from a doubtful curve fit.
# Target: Regulator of G-protein signaling 4 (Homo sapiens) (UniProt P49798)
# Sequence of UniProt P49798 (P49798 whole entry, looked up): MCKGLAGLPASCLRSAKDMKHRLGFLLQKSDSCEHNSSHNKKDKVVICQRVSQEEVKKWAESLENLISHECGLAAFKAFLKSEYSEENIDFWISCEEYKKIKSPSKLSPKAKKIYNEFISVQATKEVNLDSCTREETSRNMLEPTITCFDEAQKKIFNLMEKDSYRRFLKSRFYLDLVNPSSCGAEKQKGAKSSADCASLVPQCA
# Experiment: Inhibitors of Regulator of G Protein Signaling (RGS) 4: qHTS; also: nearly all actives have a fitted effect of over 75% in size
# Conditions: Transcreener GDP fluorescence polarization, RGS4-accelerated GTP hydrolysis; series mostly up to 114 µM; activity change, negative = inhibition: at the top concentration
# Description: G-protein-coupled receptors (GPCRs) are well-established targets for drug discovery and development. Members of the "regulator of G-protein signaling" (RGS)-protein superfamily have recently emerged as critical modulators of specific GPCR signaling pathways. […] Combining specific RGS domain inhibitors with existing GPCR agonists should potentiate cellular responses and could also increase the specificity of action of existing therapeutics. Small molecule modulators of RGS domain activity should also have clinical utility in inhibiting or potentiating the actions of endogenous GPCR agonists. In particular, the diversity of RGS proteins with highly localized and dynamically regulated distributions in the human brain makes this family of proteins attractive targets for pharmacotherapy of central nervous system (CNS) disorders such as Parkinson's disease, schizophrenia, and anxiety.
# This assay was used to screen the NIH Molecular Libraries Small Molecule Repository (MLSMR) in order to identify a small molecule that inhibits RGS4.
# NIH Chemical Genomics Center [NCGC]
# NIH Molecular Libraries Probe Centers Network [MLPCN]
# Assay Submitter (PI): David Siderovski, University of North Carolina Chapel Hill (School of Medicine)
# Two microliters of 500nM (2x working concentration) is dispensed into black medium-binding solid-bottom Kalypsys plates. Then with the Kalypsys pintool 23nl of control and compounds are transferred; the control compound is […] CCG-4986 (working concentration). After a 10 minute incubation at room temperature 2ul of antibody is added with the Kalypsys dispenser; (-)RGS4/Transcreener GDP solution in columns 3 and 4 which consisted of 10nM (2x working concentration) Alexa633, 20uM GTP, and 20 ug/ml GDP antibody and (+)RGS4/Transcreener GDP solution in columns 1,2, and 5 to 48 which consists of 900nM RGS4 (2x working concentration), 10nM Alexa633, 20 ug/ml GDP antibody. The plate is centrifuged at 1000 RPM for 15 seconds to remove any possible bubbles and then incubated for 5 minutes at ambient room temperature. An initial fluorescent polarization read (620 nm/688 nm) is performed on the Envision before the plate is incubated for 90 minutes at 30 deg C at a relative humidity of 80%. The plate is once more centrifuged at 1000 RPM for 15 seconds and another Envision fluorescent polarization (620 nm/688 nm) read is carried out.
# % is scaled to controls: 0 for no effect and ±100 for the full control effect; potency is read from the fitted curve at half-maximal effect; tags tell the direction and shape of the fitted curve.
Compound,Potency,"activity change, negative = inhibition"
Cc1ccc(-c2ccc(CCC(=O)O)o2)cc1,"inconclusive: 50.1 µM [inhibitor, partial curve, poor fit]",–
O=C(CN1C(=O)C2CCCCC2C1=O)Nc1cccc([N+](=O)[O-])c1 (stereo not given),–,inactive: 14.5%
CCOc1ncccc1C(=O)N1CCN(Cc2ccc3c(c2)OCO3)CC1,"inconclusive: 79.4 µM [inhibitor, single point]",–
Cc1cc(C)c(NC(=S)NCC2CCN(C(C)c3ccccc3)C2)c(C)c1 (stereo not given),"inconclusive: 28.2 µM [inhibitor, full curve, poor fit]",–
CCn1c(SCC(=O)N2CCN(c3ccccc3F)CC2)nnc1-c1ccoc1C,"inconclusive: 89.1 µM [inhibitor, single point]",–
Cc1cc(C)c(NC(=O)C2CCN(c3nnc(C)c4c(C)n(-c5ccccc5)nc34)CC2)c(C)c1,"inconclusive: 50.1 µM [inhibitor, partial curve, poor fit]",–
CN(C)c1ccc(N2C(=O)CSC2=S)cc1,"inconclusive: 56.2 µM [inhibitor, partial curve, poor fit]",–
CCOC(=O)c1c(-c2cccs2)csc1NC(=O)CN(CC)CC,–,inactive: 23.2%
COc1ccc(OC)c(C2CC(=O)N3CN(c4ccc(C)c(Cl)c4)CSC3=C2C#N)c1 (stereo not given),"inconclusive: 17.8 µM [inhibitor, full curve, poor fit]",–
O=C(Nc1ccccc1)N1CCN(Cc2ccc3c(c2)OCO3)CC1,"inconclusive: 89.1 µM [inhibitor, single point]",–
CN(C)CCCNC(=O)CC(c1ccc(F)cc1)c1ccco1 (stereo not given),"inconclusive: 79.4 µM [inhibitor, single point]",–
CCCCN(C(=O)c1ccc(-c2ccc(Cl)cc2)o1)c1c(N)n(CCCC)c(=O)[nH]c1=O,"inconclusive: 50.1 µM [inhibitor, partial curve, poor fit]",–
COCCNC(=O)Cc1c(C)c2c(cc(C)c3c(C(C)(C)C)coc32)oc1=O,–,inactive: 20.5%
S=c1[nH]nc(-c2cc(-c3ccccc3)n[nH]2)n1/N=C/c1c(Cl)cccc1Cl,"inconclusive: 31.6 µM [inhibitor, full curve, poor fit]",–
CSc1ccc2c(c1)C(N1CCN(C)CC1)Cc1ccccc1S2 (stereo not given),"inconclusive: 37.7 µM [inhibitor, single point]",–
COc1ccc(NS(=O)(=O)c2ccc(Oc3cccc(C(=O)O)c3)cc2)cc1,"inconclusive: 89.1 µM [inhibitor, partial curve, poor fit]",–
Cc1ccc(C(=O)CSC2=C(C#N)C(c3ccco3)C3=C(CCCC3=O)N2)cc1 (stereo not given),"inconclusive: 50.1 µM [inhibitor, partial curve, poor fit]",–
NC(=O)Cn1cnc2c(nnn2-c2ccc(F)cc2)c1=O,"inconclusive: 100 µM [inhibitor, single point]",–
CCOC(=O)C1CCN(c2c(NCc3ccc(C(=O)NCCC(C)C)cc3)c(=O)c2=O)CC1,"inconclusive: 100 µM [inhibitor, single point]",–
Cc1ccc(-c2cc(=O)c3cc(C)ccc3[nH]2)cc1,–,inactive: -5.36%

Compound,Potency,"activity change, negative = inhibition"
Cc1sc2nc3c4ccccc4c(NCc4ccco4)nn3c(=O)c2c1C,"inconclusive: 89.1 µM [inhibitor, single point]",–
COC(=O)c1ccccc1Nc1ccccc1,–,inactive: -12%
CCN(CC)C(=O)[C@H]1CC(CC(=O)NCCc2ccccn2)C(=O)N2CCc3c([nH]c4ccc(OC)cc34)[C@]12C (stereo not given in full),–,inactive: 14.2%
CN(C)CCCN1c2ccccc2Sc2ccccc21,"inconclusive: 42.3 µM [inhibitor, single point]",–
NC1=NC(=O)/C(=C/c2ccccc2OCC(=O)Nc2ccc(F)cc2)S1,"inconclusive: 31.6 µM [inhibitor, partial curve, poor fit]",–
O=C(/C=C/c1cccnc1)c1cccc(O)c1,"inconclusive: 35.5 µM [inhibitor, partial curve, poor fit]",–
Oc1ccc2ccccc2c1C=Nc1cc(C(F)(F)F)ccc1N1CCCC1,"inconclusive: 56.2 µM [inhibitor, partial curve, poor fit]",–
c1ccc(Nc2nc(NCC3CCCO3)c3ccccc3n2)cc1 (stereo not given),"inconclusive: 89.1 µM [inhibitor, single point]",–
CC1C/C(=C\c2cccnc2)C(=O)/C(=C/c2cccnc2)C1 (stereo not given),"inconclusive: 35.5 µM [inhibitor, full curve, poor fit]",–
O=C(Cc1ccccc1)NC(NNc1ccccc1)(C(F)(F)F)C(F)(F)F,"inconclusive: 70.8 µM [inhibitor, partial curve, poor fit]",–
O=c1c2cc(NC(=S)NC3CCCCC3)ccc2nc2n1CCCCC2,"inconclusive: 100 µM [inhibitor, single point]",–
O=C(Nc1ccc(Cl)cc1)C(Cl)C(=O)c1ccccc1 (stereo not given),"inconclusive: 56.2 µM [inhibitor, partial curve, poor fit]",–
Cc1sc2nc(-c3ccccn3)[nH]c(=O)c2c1-c1ccccc1,"inconclusive: 89.1 µM [inhibitor, partial curve, poor fit]",–
CCOC(=O)N1CCN(C(=O)CSc2nc(=O)n3ccccc3n2)CC1,"inconclusive: 100 µM [inhibitor, single point]",–
N=c1c(S(=O)(=O)c2ccccc2)cc2c(=O)n3ccccc3nc2n1C1CCCCC1,"inconclusive: 89.1 µM [inhibitor, single point]",–
COc1cc(Cl)ccc1NC(=S)N(CCCN1CCOCC1)Cc1cn(C)c2ccccc12,"inconclusive: 20 µM [inhibitor, full curve, poor fit]",–
CCOc1ccc(NC(=O)c2c(NC(=O)c3ccccc3Br)sc3c2CCC(C)C3)cc1 (stereo not given),"inconclusive: 100 µM [inhibitor, partial curve, poor fit]",–
c1ccc(C(c2ccccn2)c2ccccn2)cc1,"inconclusive: 89.1 µM [inhibitor, single point]",–
CCCC(C)Sc1nc2c([nH]1)c(=S)n(C)c(=O)n2C (stereo not given),–,inactive: -24.2%
O=C(O)COc1ccc(OCCNC[C@H](O)COc2ccccc2)cc1,"inconclusive: 0.844 µM [inhibitor, partial curve, poor fit]",–
